Assay results: the supplement of paper PMC6089552
About 300 (9.4%) of roughly 3,200 compounds showed activity. The list shows a part of the results, in another mix than the full data.

Test system: A673/TR/shEF
Test: cell viability (LOESS-normalised, relative to median of negative controls) (log2 ratio); higher = more viable cells (less compound effect), active = hit call of the paper (over 3 MAD below the median)
Conditions: treatment time: 72 h
Procedure, shortened: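 A673/TR/shEF Ewing sarcoma cells (1,500 per well, 384-well plates) were grown with or without doxycycline to induce EWS-FLI1 shRNA knockdown, starting 24 h before compounds. Library compounds at two or more concentrations, with DMSO controls, were added for three days. Cell viability was read by CellTiter-Glo luminescence on an Envision reader, then LOESS-corrected per plate, divided by the median of negative controls and log2-transformed. Hits were wells at least three median absolute deviations from the median of all screened wells.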

[1] = 0.103 µM, library screen: screen3, EWS-FLI1 expression: high (no doxycycline)
[2] = 0.103 µM, library screen: screen3, EWS-FLI1 expression: low (doxycycline-induced shRNA knockdown)
[3] = 0.308 µM, library screen: screen3, EWS-FLI1 expression: high (no doxycycline)
[4] = 0.308 µM, library screen: screen3, EWS-FLI1 expression: low (doxycycline-induced shRNA knockdown)
[5] = 0.926 µM, library screen: screen3, EWS-FLI1 expression: high (no doxycycline)
[6] = 0.926 µM, library screen: screen3, EWS-FLI1 expression: low (doxycycline-induced shRNA knockdown)
[7] = 2.8 µM, library screen: screen3, EWS-FLI1 expression: high (no doxycycline)
[8] = 2.8 µM, library screen: screen3, EWS-FLI1 expression: low (doxycycline-induced shRNA knockdown)
[9] = 8.3 µM, library screen: screen3, EWS-FLI1 expression: high (no doxycycline)
[10] = 8.3 µM, library screen: screen3, EWS-FLI1 expression: low (doxycycline-induced shRNA knockdown)
[11] = 25 µM, library screen: screen3, EWS-FLI1 expression: high (no doxycycline)
[12] = 25 µM, library screen: screen3, EWS-FLI1 expression: low (doxycycline-induced shRNA knockdown)
[13] = 0.25 µM, library screen: screen1, EWS-FLI1 expression: high (no doxycycline)
[14] = 0.25 µM, library screen: screen1, EWS-FLI1 expression: low (doxycycline-induced shRNA knockdown)
[15] = 2.5 µM, library screen: screen1, EWS-FLI1 expression: high (no doxycycline)
[16] = 2.5 µM, library screen: screen1, EWS-FLI1 expression: low (doxycycline-induced shRNA knockdown)
[17] = 0.25 µM, library screen: screen2, EWS-FLI1 expression: high (no doxycycline)
[18] = 0.25 µM, library screen: screen2, EWS-FLI1 expression: low (doxycycline-induced shRNA knockdown)
[19] = 2.5 µM, library screen: screen2, EWS-FLI1 expression: high (no doxycycline)
[20] = 2.5 µM, library screen: screen2, EWS-FLI1 expression: low (doxycycline-induced shRNA knockdown)

Measured: cell viability (log2)

CCc1c2c(nc3ccc(OC(=O)N4CCC(N5CCCCC5)CC4)cc13)-c1cc3c(c(=O)n1C2)COC(=O)[C@]3(O)CC
active: [5] -0.241 | [7] -1.31 | [8] -0.173 | [9] -1.95 | [10] -0.414 | [11] -2.57 | [12] -0.647
inactive: [1] 0.00275 | [2] 0.0626 | [3] -0.0633 | [4] 0.00509 | [6] 0.026

CC(C)C[C@@H]1NC(=O)[C@H](CCCN)NC(=O)[C@H](C(C)C)NC(=O)[C@@H]2CCCN2C(=O)[C@@H](Cc2ccccc2)NC(=O)[C@H](CC(C)C)NC(=O)[C@H](CCCN)NC(=O)[C@H](C(C)C)NC(=O)[C@@H]2CCCN2C(=O)[C@@H](Cc2ccccc2)NC1=O
active: [13] -1.96 | [14] -0.176 | [15] -3.79

CCOc1ccc(C(=O)Nc2cccc(OC)c2)cc1Cl
inactive: [13] 0.0358 | [14] 0.0408 | [15] 0.151 | [16] 0.0428

Cc1ccc2c(c1)CC[C@H]1CC(=O)CC[C@]21C
inactive: [13] 0.166 | [14] 0.172 | [15] 0.0746 | [16] 0.103

CS(=O)(=O)c1ccc2nc(NC(=O)c3cccc(Cl)c3)sc2c1
active: [13] -0.0938
inactive: [14] 0.0657 | [15] 0.0503 | [16] 0.0275

CC(=O)Nc1ccc(S(=O)(=O)Nc2ccc([N+](=O)[O-])cc2)cc1
inactive: [13] 0.104 | [14] 0.0989 | [15] 0.0879 | [16] 0.134

Cc1ccc(C(=O)Nc2ccc(S(=O)(=O)O)c3cc(S(=O)(=O)O)cc(S(=O)(=O)O)c23)cc1NC(=O)c1cccc(NC(=O)Nc2cccc(C(=O)Nc3cc(C(=O)Nc4ccc(S(=O)(=O)O)c5cc(S(=O)(=O)O)cc(S(=O)(=O)O)c45)ccc3C)c2)c1
inactive: [13] 0.152 | [14] 0.0138 | [15] 0.0749 | [16] 0.0704
active: [17] -2.98 | [18] -2.91 | [19] -3.46 | [20] -3.2

CCc1cc(C(N)=S)ccn1
inactive: [1] 0.0944 | [2] 0.0964 | [13] 0.139 | [14] 0.00592 | [3] 0.102 | [4] 0.162 | [5] 0.0904 | [6] 0.0766 | [15] 0.205 | [16] -0.0465 | [7] 0.172 | [8] 0.0977 | [9] 0.102 | [10] 0.0932 | [11] 0.092 | [12] 0.103

COCc1cc(O)c(O)c(O)c1-c1c(COC)cc(O)c(O)c1O
active: 25 µM, library screen: screen1, EWS-FLI1 expression: high (no doxycycline) -4.25 | 25 µM, library screen: screen1, EWS-FLI1 expression: low (doxycycline-induced shRNA knockdown) -2.42

Cc1ccc(C(C)C)cc2c(C)ccc1-2
inactive: [13] 0.0556 | [14] -0.0467 | [15] 0.0686 | [16] 0.0228

CCOc1cc2ncc(C#N)c(Nc3ccc(OCc4ccccn4)c(Cl)c3)c2cc1NC(=O)/C=C/CN(C)C
active: [9] -0.204 | [10] -0.529
inactive: [1] 0.0468 | [2] 0.0085 | [3] -0.038 | [4] -0.0155 | [5] -0.0139 | [6] -0.00326 | [7] -0.0436 | [8] -0.282 | [11] -0.035 | [12] -0.415

CC12CC[C@](C)(C(=O)O)CC1C1=CC(=O)[C@@H]3C4(C)CC[C@H](OC(=O)CCC(=O)O)C(C)(C)[C@@H]4CCC3(C)[C@]1(C)CC2 (some centres not stated)
inactive: [13] 0.0741 | [14] -0.061 | [15] 0.0857 | [16] -0.0474

Cc1cn([C@@H]2C[C@@H](O)[C@H](CO)O2)c(=O)[nH]c1=O
inactive: [1] 0.207 | [2] 0.0457 | [3] 0.0611 | [4] 0.118 | [5] 0.128 | [6] 0.0817 | [7] 0.203 | [8] 0.115 | [9] 0.177 | [10] 0.101 | [11] 0.139 | [12] 0.167

NC(=O)c1ncn([C@@H]2O[C@H](CO)[C@@H](O)[C@H]2O)c1O
inactive: [13] 0.115 | [14] 0.116 | [17] 0.21 | [18] 0.141 | [15] 0.0737 | [16] 0.176 | [19] 0.0545 | [20] 0.0404

FC(F)(F)c1ccc(/C=C/c2nc(COc3ccc(CCCCn4ccnn4)cc3)co2)cc1
inactive: [2] -0.0943
active: [1] -0.325 | [3] -0.568 | [4] -0.12 | [5] -0.774 | [6] -0.153 | [7] -1.45 | [8] -0.118 | [9] -1.63 | [10] -0.193 | [11] -1.47 | [12] -0.184

COc1cc(O)c(C(C)=O)c(OC)c1
inactive: [13] 0.0973 | [14] 0.0966 | [15] 0.174 | [16] 0.0819

O=C1c2c(O)cc(O)cc2OC(c2ccc(O)c(O)c2)C1O (configuration not stated)
inactive: [17] 0.133 | [18] 0.0297 | [19] 0.102 | [20] 0.0627

COc1cc2cccc(OC)c(=O)c2c(OC)c1OC
inactive: [13] 0.0955 | [14] 0.0427 | [15] 0.109 | [16] 0.0214

COc1ccc(/C=C(/NC(=O)c2ccccc2)C(=O)N2CCCCCC2)cc1OC
inactive: [13] 0.12 | [14] 0.0586 | [15] 0.088 | [16] 0.085

CNCC[C@H](Oc1ccc(C(F)(F)F)cc1)c1ccccc1
inactive: [17] 0.139 | [18] 0.0447 | [19] 0.143 | [20] 0.0871

CCCCC(=O)O[C@]1(C(=O)CO)[C@@H](C)C[C@H]2[C@@H]3CCC4=CC(=O)C=C[C@]4(C)[C@@]3(F)[C@@H](O)C[C@@]21C
inactive: [1] 0.0682 | [2] 0.0203 | [3] 0.15 | [4] 0.127 | [5] 0.127 | [6] 0.135 | [7] 0.129 | [8] 0.136 | [9] 0.0174 | [10] 0.103 | [11] 0.1 | [12] 0.187

COc1cc(C(=O)N2CCOCC2)cc(OC)c1OC
inactive: [13] 0.0822 | [14] 0.0424 | [15] 0.092 | [16] 0.0641

CC(=O)OCC(=O)[C@@]1(O)CC[C@H]2[C@@H]3CCC4=CC(=O)CC[C@]4(C)[C@H]3C(=O)C[C@@]21C
inactive: [1] 0.0994 | [2] 0.124 | [13] 0.0838 | [14] 0.0179 | [17] 0.23 | [18] 0.145 | [3] 0.101 | [4] 0.118 | [5] 0.038 | [6] 0.116 | [15] 0.177 | [16] 0.135 | [19] 0.207 | [20] 0.0904 | [7] 0.0544 | [8] 0.064 | [9] 0.0695 | [10] 0.0799 | [11] 0.0909 | [12] 0.134

C[C@H]1C[C@H]2[C@@H]3CCC4=CC(=O)C=C[C@]4(C)[C@@]3(Cl)[C@@H](O)C[C@]2(C)[C@@]1(O)C(=O)CO
inactive: [17] 0.128 | [18] 0.136 | [19] 0.123 | [20] 0.122

COc1cc2nc(N3CCN(C(=O)C4CCCO4)CC3)nc(N)c2cc1OC (configuration not stated)
inactive: [17] 0.137 | [18] 0.0786 | [19] 0.219 | [20] 0.0762

Oc1ccc(O)cc1
inactive: [13] 0.173 | [14] -0.00289 | [17] 0.117 | [18] 0.0439 | [15] 0.159 | [16] -0.0565 | [19] 0.0822 | [20] 0.0421

CC1CCC(NC(=O)N(CCCl)N=O)CC1 (configuration not stated)
inactive: 0.025 µM, library screen: screen2, EWS-FLI1 expression: high (no doxycycline) -0.0398 | 0.025 µM, library screen: screen2, EWS-FLI1 expression: low (doxycycline-induced shRNA knockdown) 0.0242 | [17] -0.0116 | [18] 0.0352 | [19] 0.0888 | [20] -0.00139 | 25 µM, library screen: screen2, EWS-FLI1 expression: high (no doxycycline) 0.114 | 25 µM, library screen: screen2, EWS-FLI1 expression: low (doxycycline-induced shRNA knockdown) 0.0494

CC1=C2C(O)C(=O)OC3CC4C(C)(C)C(=O)C=C[C@]4(C)C(CC1)[C@]23C (some centres not stated)
inactive: [13] 0.0331 | [14] -0.0037 | [15] 0.0845 | [16] 0.0593

Nc1ccc(S(=O)(=O)Nc2ccc(Cl)nn2)cc1
inactive: [13] 0.0457 | [14] 0.0408 | [15] 0.127 | [16] 0.0691

CC(=O)NC(C(=O)O)C(C)(C)SN=O (configuration not stated)
inactive: [13] 0.0237 | [14] 0.0738 | [15] 0.0839 | [16] 0.0215

COc1ccccc1C1NC(=S)NC(C)=C1C(=O)Nc1ccccc1Cl (configuration not stated)
inactive: [13] 0.153 | [14] 0.0944 | [15] 0.107 | [16] 0.0425

COc1cc(CN2CCN(Cc3ccc(C(F)(F)F)cc3)CC2)cc(OC)c1OC
inactive: [13] 0.0718 | [14] 0.0154 | [15] 0.146 | [16] 0.075

C[n+]1cccc(C(=O)[O-])c1
inactive: [13] -0.0209 | [14] 0.0759 | [15] 0.123 | [16] 0.144

COc1cc(/C=C/C(=O)O)ccc1O
inactive: [13] 0.0581 | [14] -0.0401 | [15] 0.12 | [16] -0.00647

NS(=O)(=O)c1cc2c(cc1Cl)NCNS2(=O)=O
inactive: [1] 0.0475 | [2] 0.0356 | [13] 0.106 | [14] -0.00905 | [17] 0.0648 | [18] -0.00556 | [3] 0.0838 | [4] 0.115 | [5] 0.134 | [6] -0.0103 | [15] 0.141 | [16] 0.0832 | [19] 0.089 | [20] -0.0555 | [7] 0.201 | [8] 0.0285 | [9] 0.0896 | [10] 0.061 | [11] 0.181 | [12] 0.0767
